# Test results as given in the supplement of paper PMC8728848.
# This is one part of the list.
# B1: StcE (Escherichia coli), O82882.2 (protein)
# chain: ADNNSAIYFNTSQPINDLQGSLAAEVKFAQSQILPAHPKEGDSQPHLTSLRKSLLLVRPVKADDKTPVQVEARDDNNKILGTLTLYPPSSLPDTIYHLDGVPEGGIDFTPHNGTKKIINTVAEVNKLSDASGSSIHSHLTNNALVEIHTANGRWVRDIYLPQGPDLEGKMVRFVSSAGYSSTVFYGDRKVTLSVGNTLLFKYVNGQWFRSGELENNRITYAQHIWSAELPAHWIVPGLNLVIKQGNLSGRLNDIKIGAPGELLLHTIDIGMLTTPRDRFDFAKDKEAHREYFQTIPVSRMIVNNYAPLHLKEVMLPTGELLTDMDPGNGGWHSGTMRQRIGKELVSHGIDNANYGLNSTAGLGENSHPYVVAQLAAHNSRGNYANGIQVHGGSGGGGIVTLDSTLGNEFSHEVGHNYGLGHYVDGFKGSVHRSAENNNSTWGWDGDKKRFIPNFYPSQTNEKSCLNNQCQEPFDGHKFGFDAMAGGSPFSAANRFTMYTPNSSAIIQRFFENKAVFDSRSSTGFSKWNADTQEMEPYEHTIDRAEQITASVNELSESKMAELMAEYAVVKVHMWNGNWTRNIYIPTASADNRGSILTINHEAGYNSYLFINGDEKVVSQGYKKSFVSDGQFWKERDVVDTREARKPEQFGVPVTTLVGYYDPEGTLSSYIYPAMYGAYGFTYSDDSQNLSDNDCQLQVDTKEGQLRFRLANHRANNTVMNKFHINVPTESQPTQATLVCNNKILDTKSLTPAPEGLTYTVNGQALPAKENEGCIVSVNSGKRYCLPVGQRSGYSLPDWIVGQEVYVDSGAKAKVLLSDWDNLSYNRIGEFVGNVNPADMKKVKAWNGQYLDFSKPRSMRVVYK
# Legend:
# Experiment in all cases: glycan array binding signal (z-score within array); higher = stronger binding
# Details in all cases: glycan notation: IUPAC condensed, linker removed
# [1] = target: Fuc(a1-3)[Gal(b1-4)]GlcNAc(b1-3)Gal(b1-4)[Fuc(a1-3)]GlcNAc
# Procedure, shortened: (§1)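 The Consortium for Functional Glycomics database supplied 3228 glycan arrays, of which those lacking an available protein sequence were dropped. The binding signal, a within-array Z-score, was averaged across arrays of the same protein sequence and across linkers. Negative scores can be read as non-binding.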
# [2] = target: Fuc(a1-3)[Gal(b1-4)]GlcNAc(b1-3)Gal(b1-4)[Fuc(a1-3)]GlcNAc(b1-3)Gal(b1-4)[Fuc(a1-3)]GlcNAc
# Procedure, shortened: as §1
# [3] = target: Fuc(a1-3)[Gal(b1-4)]GlcNAc(b1-3)GalNAc
# Procedure, shortened: as §1
# [4] = target: Fuc(a1-3)[Gal(b1-4)]GlcNAc(b1-4)Gal(b1-4)[Fuc(a1-3)]GlcNAc
# Procedure, shortened: as §1
# [5] = target: Fuc(a1-3)[Gal(b1-4)]GlcNAc(b1-4)Gal(b1-4)[Fuc(a1-3)]GlcNAc(b1-4)Gal(b1-4)[Fuc(a1-3)]GlcNAc
# Procedure, shortened: as §1
# [6] = target: Fuc(a1-3)[Gal(b1-4)]GlcNAc(b1-6)GalNAc
# Procedure, shortened: as §1
# [7] = target: Fuc(a1-3)[Gal(b1-4)]GlcNAc(b1-6)[Gal(b1-3)GlcNAc(b1-3)]Gal(b1-4)Glc
# Procedure, shortened: as §1
# [8] = target: Fuc(a1-3)[Gal(b1-4)]GlcNAc(b1-6)[Neu5Ac(a2-3)Gal(b1-3)]GalNAc
# Procedure, shortened: as §1
# [9] = target: Fuc(a1-3)[Gal(b1-4)]GlcNAc6S
# Procedure, shortened: as §1
# [10] = target: Fuc(a1-3)[Gal3S(b1-4)]GlcNAc
# Procedure, shortened: as §1
# [11] = target: Fuc(a1-3)[Gal3S(b1-4)]GlcNAc6S
# Procedure, shortened: as §1
# [12] = target: Fuc(a1-3)[GalNAc(b1-4)]GlcNAc
# Procedure, shortened: as §1
# [13] = target: Fuc(a1-3)[GalNAc(b1-4)]GlcNAc6S
# Procedure, shortened: as §1
# [14] = target: Fuc(a1-3)[GalNAc3S(b1-4)]GlcNAc
# Procedure, shortened: as §1
# Fuc(a1-4)GlcNAc = target: Fuc(a1-4)GlcNAc
# Procedure, shortened: as §1
# Fuc(b1-3)GlcNAc = target: Fuc(b1-3)GlcNAc
# Procedure, shortened: as §1
# Gal(a1-2)Gal = target: Gal(a1-2)Gal
# Procedure, shortened: as §1
# Gal(a1-3)Gal = target: Gal(a1-3)Gal
# Procedure, shortened: as §1
# Gal(a1-3)Gal(b1-3)GlcNAc = target: Gal(a1-3)Gal(b1-3)GlcNAc
# Procedure, shortened: as §1
# [15] = target: Gal(a1-3)Gal(b1-3)GlcNAc(b1-2)Man(a1-3)[Gal(a1-3)Gal(b1-3)GlcNAc(b1-2)Man(a1-6)]Man(b1-4)GlcNAc(b1-4)GlcNAc
# Procedure, shortened: as §1
# [16] = target: Gal(a1-3)Gal(b1-3)GlcNAc(b1-3)GalNAc
# Procedure, shortened: as §1
# [17] = target: Gal(a1-3)Gal(b1-3)GlcNAc(b1-6)GalNAc
# Procedure, shortened: as §1
# [18] = target: Gal(a1-3)Gal(b1-3)[Fuc(a1-4)]GlcNAc(b1-2)Man(a1-3)[Gal(a1-3)Gal(b1-3)[Fuc(a1-4)]GlcNAc(b1-2)Man(a1-6)]Man(b1-4)GlcNAc(b1-4)GlcNAc
# Procedure, shortened: as §1
# Gal(a1-3)Gal(b1-4)Glc = target: Gal(a1-3)Gal(b1-4)Glc
# Procedure, shortened: as §1
# Gal(a1-3)Gal(b1-4)GlcNAc = target: Gal(a1-3)Gal(b1-4)GlcNAc
# Procedure, shortened: as §1
# [19] = target: Gal(a1-3)Gal(b1-4)GlcNAc(b1-3)GalNAc
# Procedure, shortened: as §1
# [20] = target: Gal(a1-3)Gal(b1-4)GlcNAc(b1-6)GalNAc
# Procedure, shortened: as §1
# [21] = target: Gal(a1-3)Gal(b1-4)[Fuc(a1-3)]GlcNAc
# Procedure, shortened: as §1
# [22] = target: Gal(a1-3)Gal(b1-4)[Fuc(a1-3)]GlcNAc(b1-2)Man(a1-3)[Gal(a1-3)Gal(b1-4)[Fuc(a1-3)]GlcNAc(b1-2)Man(a1-6)]Man(b1-4)GlcNAc(b1-4)GlcNAc
# Procedure, shortened: as §1
# Gal(a1-3)GalNAc = target: Gal(a1-3)GalNAc
# Procedure, shortened: as §1
binder,measurement,setting,value
B1,glycan array binding signal (z-score),[1],0.176
same,glycan array binding signal (z-score),[2],-0.915
same,glycan array binding signal (z-score),[3],-0.124
same,glycan array binding signal (z-score),[4],-0.114
same,glycan array binding signal (z-score),[5],0.093
same,glycan array binding signal (z-score),[6],-0.134
same,glycan array binding signal (z-score),[7],-0.173
same,glycan array binding signal (z-score),[8],0.102
same,glycan array binding signal (z-score),[9],-0.15
same,glycan array binding signal (z-score),[10],0.099
same,glycan array binding signal (z-score),[11],-0.11
same,glycan array binding signal (z-score),[12],-0.156
same,glycan array binding signal (z-score),[13],-0.031
same,glycan array binding signal (z-score),[14],-0.164
same,glycan array binding signal (z-score),Fuc(a1-4)GlcNAc,-0.146
same,glycan array binding signal (z-score),Fuc(b1-3)GlcNAc,-0.359
same,glycan array binding signal (z-score),Gal(a1-2)Gal,-0.153
same,glycan array binding signal (z-score),Gal(a1-3)Gal,-0.371
same,glycan array binding signal (z-score),Gal(a1-3)Gal(b1-3)GlcNAc,-0.11
same,glycan array binding signal (z-score),[15],-0.061
same,glycan array binding signal (z-score),[16],0.272
same,glycan array binding signal (z-score),[17],-0.144
same,glycan array binding signal (z-score),[18],4.13
same,glycan array binding signal (z-score),Gal(a1-3)Gal(b1-4)Glc,-0.25
same,glycan array binding signal (z-score),Gal(a1-3)Gal(b1-4)GlcNAc,0.091
same,glycan array binding signal (z-score),[19],-0.089
same,glycan array binding signal (z-score),[20],-0.141
same,glycan array binding signal (z-score),[21],0.116
same,glycan array binding signal (z-score),[22],-0.107
same,glycan array binding signal (z-score),Gal(a1-3)GalNAc,-0.129
